# Experimental data reported in paper PMC6919601, “Identification of Plasmodium dipeptidyl aminopeptidase allosteric inhibitors by high throughput screening” (PLoS ONE, 2019).
# Out of some 110,000 compounds screened, about 230 (0.21%) showed an effect of 50% or more. This is one part of the list.
# Target: DPAP1 (Plasmodium falciparum, UniProt Q8IIJ9)
# Experiment: primary screen, percent inhibition; read by cleavage of a fluorogenic dipeptide substrate; higher = more effect of the substance
# Set-up: species or system P. falciparum D10 trophozoite lysates; single well
# 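Further: 30 min substrate incubation versus DMSO and 10 µM JCP410 controls.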
# DPAP1, sequence (Q8IIJ9 whole entry, looked up): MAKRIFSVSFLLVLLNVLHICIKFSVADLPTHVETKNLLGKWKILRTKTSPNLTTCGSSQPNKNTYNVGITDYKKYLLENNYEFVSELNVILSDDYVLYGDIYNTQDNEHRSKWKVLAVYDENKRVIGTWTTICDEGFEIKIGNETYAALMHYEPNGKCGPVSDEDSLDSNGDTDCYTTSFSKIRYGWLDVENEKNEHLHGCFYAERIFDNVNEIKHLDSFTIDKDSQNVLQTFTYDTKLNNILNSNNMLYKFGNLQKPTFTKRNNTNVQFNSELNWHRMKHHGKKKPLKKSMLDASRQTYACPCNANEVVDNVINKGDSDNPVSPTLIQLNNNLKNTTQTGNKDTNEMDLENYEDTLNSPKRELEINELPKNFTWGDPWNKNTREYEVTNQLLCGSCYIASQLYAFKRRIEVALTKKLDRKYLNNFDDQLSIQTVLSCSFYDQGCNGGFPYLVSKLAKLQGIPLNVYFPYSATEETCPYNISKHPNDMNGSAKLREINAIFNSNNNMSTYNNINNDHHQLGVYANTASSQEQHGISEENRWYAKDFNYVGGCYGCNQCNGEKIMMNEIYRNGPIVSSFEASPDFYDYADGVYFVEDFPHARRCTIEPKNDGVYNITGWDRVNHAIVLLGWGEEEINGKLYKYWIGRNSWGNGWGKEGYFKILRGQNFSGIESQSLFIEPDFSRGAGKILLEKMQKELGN
row,Structure (SMILES),% Inhibition @ 10 uM [%]
1,CCOC(=O)c1c(NC(=O)CSc2nc(O)c3cnn(-c4ccccc4)c3n2)sc2c1CCC2,-5.22
2,CC1=NN2C(=N)/C(=C\c3cccn3-c3ccc(Cl)c(Cl)c3)C(=O)N=C2S1,-1.54
3,COc1cc(S(=O)(=O)N2CCCCC2)ccc1N/C=C1/C(=O)NC(=O)N(c2ccc(C)cc2)C1=O,3.05
4,C=CCSc1nnc(NC(=O)Cc2coc3ccc(OC)cc23)s1,44
5,O=S(=O)(c1ccccc1)N1CCC[C@H]1C(O)(c1ccccc1)c1ccccc1,0.324
6,Cc1onc(-c2ccccc2Cl)c1C(=O)Nc1sc2c(c1C(N)=O)CCC(C)C2 (stereo not shown),-1.36
7,COCCNC(=O)C1c2ccccc2C(=O)N(CCOC)C1c1ccc(F)cc1 (stereo not shown),5.11
8,COc1ccc(CN2CCN(Cc3cccc(OC)c3OC)CC2)cc1,9.67
9,Cc1ccc2[nH]c(SCC(=O)Nc3ccc(Cl)cc3)nc2c1,5.24
10,O=C(CN1CCCC1=O)N1CCOCC1,1.69
11,CCN(CC)CCNc1ccc([N+](=O)[O-])cn1,-1.15
12,COc1ccccc1NC(=O)C1=C(C)Nc2sc(C#N)c(N)c2C1c1ccco1 (stereo not shown),-1.98
13,Fc1cccc(-c2nnc(-c3ccc(C(F)(F)F)cc3)o2)c1,-2.54
14,CCCC(=O)C1CCN(C(=O)c2ccc(C(C)(C)C)cc2)CC1,5.25
15,Cc1ccc(C)c(CSc2ncccc2C(=O)O)c1,2.79
16,O=C(CCC(=O)N1Cc2ccccc2Oc2ncccc21)N1CCOCC1,3.87
17,Cc1ccc2ncc(NC(=O)NCCCn3ccnc3)c(O)c2c1,6.92
18,CCOC(=O)N1CCN(C(=O)c2ccc(CN(c3ccc(C)c(C)c3)S(C)(=O)=O)cc2)CC1,-1.98
19,O=C(NCCN1CCOCC1)c1ccc(Cn2c(SCc3ccccc3)nc3cccnc32)cc1,0.95
20,CS(=O)(=O)N(CC(=O)N1CCN(c2ccc(F)cc2)CC1)C1CCCCC1,2.4
21,O=[N+]([O-])c1ccc([S+](O)N(c2ccccn2)C2CCCCC2)cc1 (stereo not shown),2.65
22,COc1cccc(/C=C/C(=O)C2C(=O)c3ccccc3C2=O)c1,-1.03

row,Structure (SMILES),% Inhibition @ 10 uM [%]
1,CSc1ccc(CNC(=O)CCC(=O)N2CC=C(c3c[nH]c4ccccc34)CC2)cc1,-2.01
2,CC1CC(Nc2ccccc2)c2ccccc2N1C(=O)COc1ccc(F)cc1 (stereo not shown),3
3,CCOC(=O)c1sc2nc(C)nc(NCc3ccccc3OC)c2c1C,-4.74
4,O=C(NCC1CCCCC1)c1nc(CS(=O)(=O)c2ccccc2)no1,3.56
5,COc1ccccc1CN1CCN(C(=O)c2c(OC)cccc2OC)CC1,4.55
6,COc1ccc(CN2CCN(C3CCN(Cc4ccccc4)CC3)CC2)c(OC)c1,-4.57
7,CC(C)OCCCNC(=O)Cc1cn(C)c2ccccc12,2.28
8,O=C1NC(=O)/C(=C\c2ccccc2OCc2ccccc2)S1,3.25
9,CC(=O)NCC/N=C/c1sc2ccccc2c1O,-6.7
10,COc1ccc2nc(NC(=O)Cn3ncc4c5ccccc5nc-4c3O)sc2c1,-6.37
11,Cc1ccccc1NC(=O)CC1S/C(=N\c2ccccc2)N(C)C1=O (stereo not shown),2.92
12,COc1cc(CN2C[C@@H]3C[C@H](C2)c2cccc(=O)n2C3)ccc1O,-1.85
13,Cc1cccc(/C=C2\N=C(c3ccccc3C)OC2=O)c1,2.92
14,Cc1noc(C(=O)NC(C)C)c1Cl,-5.49
15,CCOc1ccc(CCNc2ncnc3onc(C)c23)cc1,4.09
16,Cn1c(=O)c2c(nc(Cl)n2Cc2ccc(F)cc2)n(C)c1=O,7.76
17,Cn1c(SCC(=O)Nc2cccc(Cl)c2)nc2ccccc21,-3.23
18,CCN(CC)C(=O)COc1ccc(-c2nnc(N3CCCCC3)c3ccccc23)cc1,-1.47
19,CC(=O)N/C(=C\c1ccccc1)C(=O)Nc1ccc(Cl)cc1,-6.99
20,Cn1cccc1/C=C1\Cc2ccccc2C1=O,-0.503
21,CC(=O)Nc1ccc(NC(=O)c2ccc(N(Cc3ccccc3C)S(C)(=O)=O)cc2)cc1,-3.77
22,CCCCN(Cc1cc2cccc(C)c2nc1O)S(=O)(=O)c1ccccc1,1

row,Structure (SMILES),% Inhibition @ 10 uM [%]
1,COc1ccc(C(=O)Cc2cccc(OC)c2C(=O)N(C)C)cc1OC,-1.32
2,COc1ccc(NC(=O)COc2ccc3oc4c(c3c2)CCCC4)cc1,2.44
3,COc1ccc(/C=C2/N=C(c3ccc(OC)c(OC)c3)OC2=O)cc1OC,-3.44
4,COc1ccccc1Cc1nnc(C(=O)NC2CCCC2)o1,2
5,Cc1ccccc1CN1CCN(Cc2ccccc2C(F)(F)F)CC1,8.6
6,CCn1c(C(=O)O)c(CNCCCc2ccccc2)c2ccccc21,-5.05
7,CCCCNC(=O)c1ccc(CS(=O)(=O)c2ccc(OC)cc2)o1,5.34
8,COc1ccc(/C=C(\C#N)C(N)=S)c(OC)c1OC,1.42
9,O=C(Nc1nn2c(-c3cccs3)nnc2s1)c1cccs1,4.86
10,CCn1c2ccccc2c2cc(C=C(C#N)C#N)ccc21,-0.597
11,CN(C)CCNC(=O)c1ccc(CS(=O)(=O)c2c(Cl)cccc2Cl)o1,-2.72
12,COc1ccc(Br)cc1C1C(C#N)=C(N)OC2=C1C(=O)CC(C)(C)C2 (stereo not shown),5.9
13,COc1ccc(-n2cc(-c3ccccc3)c3c(NCCOCCO)ncnc32)cc1,9.07
14,CCc1cc2ccccc2c[n+]1CC,-4.75
15,COc1cc(OC)cc(C(=O)NC23CC4CC(CC(C4)C2)C3)c1,1.24
16,Cn1c(NCc2ccccc2Cl)nc2c1c(=O)n(Cc1cccc(Cl)c1)c(=O)n2C,0.279
17,O=C1OCC(Cn2c3ccccc3c3ccccc32)O1 (stereo not shown),-0.693
18,CCCN1CCN(C(=O)c2cc3c(s2)-c2ccccc2S(=O)(=O)C3)CC1,2.84
19,O=C(Nc1ccccc1C(=O)NCCN1CCOCC1)c1ccc(Cl)cc1Cl,8.06
20,N#Cc1c(-c2ccncc2)cc(-c2ccc(F)cc2)nc1N,-1.33
